From PubChem BioAssay AID624330 (Southern Research Specialized Biocontainment Screening …, 2012)
Out of some 340,000 compounds screened, about 2,100 (0.62%) were called active. The inconclusive results got no clear call from the source; some entries with a clear call stand among them for comparison.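 Rule for the calls: active = first-screen hits whose inhibition reached a set limit at any dose in the follow-up dose series; inconclusive = inhibition above the set first-screen limit but never retested; inactive = the rest.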

molecular target: Rac GTPase-activating protein 1 (Homo sapiens) (UniProt Q9H0H5); experiment: blockers of MgcRacGAP-driven Rac1 GTP hydrolysis – biochemical, ADP Hunter fluorescence, primary and confirmatory, confirmation (AID 624330); details: MgcRacGAP-stimulated Rac1 GTP hydrolysis, at 30 µM, stronger effect = higher value, GST-tagged Rac1 F28L mutant substrate;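 note: fluorescence reports GDP produced by GAP-driven GTP hydrolysis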
UniProt Q9H0H5, sequence (Q9H0H5 whole entry, looked up): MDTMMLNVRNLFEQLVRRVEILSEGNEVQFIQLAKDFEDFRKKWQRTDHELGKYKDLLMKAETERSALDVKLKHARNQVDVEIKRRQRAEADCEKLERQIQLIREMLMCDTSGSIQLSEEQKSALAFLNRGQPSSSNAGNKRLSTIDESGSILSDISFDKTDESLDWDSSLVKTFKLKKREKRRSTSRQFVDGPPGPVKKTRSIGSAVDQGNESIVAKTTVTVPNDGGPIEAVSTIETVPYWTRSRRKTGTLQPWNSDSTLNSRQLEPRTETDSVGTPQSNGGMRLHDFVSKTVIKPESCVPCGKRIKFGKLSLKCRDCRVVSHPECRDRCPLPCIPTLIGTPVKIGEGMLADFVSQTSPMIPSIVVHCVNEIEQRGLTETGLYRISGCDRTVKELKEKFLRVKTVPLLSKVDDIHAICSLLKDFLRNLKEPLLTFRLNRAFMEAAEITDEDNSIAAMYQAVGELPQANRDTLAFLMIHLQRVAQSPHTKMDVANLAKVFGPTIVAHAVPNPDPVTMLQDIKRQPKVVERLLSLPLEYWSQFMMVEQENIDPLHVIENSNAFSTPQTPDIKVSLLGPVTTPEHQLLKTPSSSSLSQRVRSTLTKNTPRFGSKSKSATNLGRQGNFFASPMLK

| Structure (SMILES) | inhibition |
| --- | --- |
| Oc1ccc(/C=N/N2CCN(Cc3ccccc3)CC2)cc1 | inconclusive: 72.8% |
| COc1cc(Cn2c(-c3ccc(O)c(OC)c3)nc3ccccc32)ccc1O | inconclusive: 35.9% |
| CCC(C)n1ncn(-c2ccc(N3CCN(c4ccc(O)cc4)CC3)cc2)c1=O (stereo unspecified) | inconclusive: 61.6% |
| COc1ccccc1N1C(=O)CC(Nc2ccc(N3CCOCC3)cc2)C1=O (stereo unspecified) | inconclusive: 43.5% |
| CNc1nc(-c2ccc3c(c2)CCN3C(=O)c2ccccc2F)cs1 | inconclusive: 31.9% |
| O=C(CSc1nc2nn(-c3ccccc3)c(=O)c-2c2n1CCCCC2)c1ccc(O)c(O)c1 | inconclusive: 66.8% |
| COc1cc(/C=C/c2ccc(O)cc2)cc(OC)c1 | inconclusive: 33.9% |
| O=C(C1CCCN(Cc2cccs2)C1)N1CCCCCC1 (stereo unspecified) | inconclusive: 33.5% |
| COc1cc(/C=N/N(C)C)cc(Br)c1O | inconclusive: 100% |
| COc1ccc(CN2CCN(C(=O)c3cccc4ccccc34)CC2)c(OC)c1OC | inconclusive: 34.5% |
| OC(CNCC1(N2CCCCC2)CCCCC1)COc1ccc(Cl)cc1Cl (stereo unspecified) | inactive: 17.6% |
| CCN=c1scc(-c2ccc(F)cc2)n1/N=C/c1ccccn1 | inactive: 9.08% |
| CC(NC(=O)C(C)N1CCN(Cc2ccccc2)CC1)c1ccccc1 (stereo unspecified) | inactive: 4.7% |
| CC1=CN2C(=N)/C(=C/c3ccco3)C(=O)N=C2S1 | inactive: 5.23% |
| CN(C(=S)NCCN1CCOCC1)C(c1ccccc1)c1ccccc1 | inconclusive: 33% |
| CC(C)(C)n1nnnc1C(c1ccncc1)N1CCN(c2ccc(O)cc2)CC1 (stereo unspecified) | inconclusive: 55.6% |
| COc1ccc(N2CCN(c3cc(C)nc4ccc(OC)cc34)CC2)cc1 | inconclusive: 33.3% |
| O=C(Cn1c(=O)n(Cc2ccco2)c(=O)c2c3c(sc21)CCCCC3)c1ccccc1 | inconclusive: 42.9% |
| O=C(C1COc2ccccc2O1)N1CCN(c2nc3c(F)cc(F)cc3s2)CC1 (stereo unspecified) | inactive: 1.62% |
| CCN(CC)c1ccc(NC(=O)C2CC(=O)N(Cc3ccccc3)C2)cc1 (stereo unspecified) | inconclusive: 65.3% |
| Cc1sc2ncnc(NCCN3CCOCC3)c2c1C | inconclusive: 36% |
| O=C(CSc1cccc2cccnc12)N/N=C/c1ccc(O)cc1 | inconclusive: 41.5% |
| CC(C)Cc1nc2ccc(N)cc2[nH]1 | inconclusive: 38% |

| Structure (SMILES) | inhibition |
| --- | --- |
| C/C(=N\NC(=O)c1ccc(NS(=O)(=O)c2cccs2)cc1)c1ccc(C(C)(C)C)cc1 | inactive: 8.43% |
| Cc1ccc(S(=O)(=O)N2CCN(C(=O)COC(=O)CC(C)c3ccccc3)CC2)c(C)c1 (stereo unspecified) | inactive: -1.45% |
| Cc1ccc(CNc2ccc3c(c2)nc(C)n3C)cc1 | inconclusive: 33.9% |
| C[N+](C)(CCCCCC[N+](C)(C)CCCN1C(=O)c2cccc3cccc(c23)C1=O)CCCN1C(=O)c2cccc3cccc(c23)C1=O | inconclusive: 36.5% |
| CCOC(=O)CN1C(=N)N(c2nc(NC(C)C)nc(NC(C)C)n2)CC1=O | inactive: 7% |
| NC(=O)C1CCN(C(=O)COc2ccc(Nc3ccccc3)cc2)CC1 | inconclusive: 50.3% |
| Cc1occc1C(=O)N/N=C/C=C/c1ccc(N(C)C)cc1 | inconclusive: 75.7% |
| CCn1c(SCC(=O)Nc2ccc(N(C)C)cc2)nnc1-c1ccco1 | inconclusive: 36.9% |
| COc1ccc(/C=C(/C#N)C(=O)Nc2ccc(O)cc2)cc1C(=O)O | inconclusive: 78.1% |
| COc1ccc(/C=N/NC(=O)c2ccc(C)cc2)cc1CN1CCN(c2ccc(F)cc2)CC1 | inactive: 11.1% |
| COc1cc(C=NNc2nc3c([nH]2)c(=O)n(C)c(=O)n3C)ccc1O | inactive: 12.7% |
| Oc1ccccc1/C=N/n1c2ccccc2c2ccccc21 | inactive: 8.39% |
| CCCCn1c(N)c(N(Cc2ccccc2OC)C(=O)C(C)Oc2ccc(Cl)cc2)c(=O)[nH]c1=O (stereo unspecified) | inactive: 3.24% |
| Nc1scc2c(C(=O)O)nn(-c3ccccc3)c(=O)c12 | inconclusive: 35.3% |
| COc1ccc(C(=O)Nc2ccc(O)c3ccccc23)cc1 | inconclusive: 42.7% |
| Cc1nc(-c2ccc(O)c(O)c2)cs1 | inconclusive: 122% |
| CC1CCCN(c2ccc(N)cc2C(N)=O)C1 (stereo unspecified) | inconclusive: 40.9% |
| O=C(O)CCNc1ccc(NCCC(=O)O)c2c1C(=O)c1ccccc1C2=O | inconclusive: 46.2% |
| CCCS(=O)(=O)N1CCN(CC2CC=CCC2)CC1 (stereo unspecified) | inconclusive: 33.2% |
| Oc1ccc(C[C@H]2CNC(=S)N2CC2CCCN2C[C@H](Cc2ccc(O)cc2)N2C[C@H](Cc3ccccc3)N(CCc3ccccc3)C2=S)cc1 (stereo partly specified) | inactive: 10.5% |
| O=C(O)CC(C(=O)O)N1C(=O)/C(=C/C=C/c2ccco2)SC1=S (stereo unspecified) | inconclusive: 89.7% |
| CC1CN(S(=O)(=O)N(C)C)CCN1S(=O)(=O)N(C)C (stereo unspecified) | inactive: 5.65% |
| COc1cc(/C=N/N2C(=O)CSC2=S)ccc1O | inconclusive: 32.6% |

| Structure (SMILES) | inhibition |
| --- | --- |
| O=C(Nc1cccc(C(=O)Nc2ccccc2F)c1)c1ccccc1 | inactive: -9.87% |
| COc1cc(NC(=O)CN2CCC(C(N)=O)(N3CCCCC3)CC2)c(OC)cc1Cl | inactive: 0.16% |
| CC(=O)N1c2ccc(S(=O)(=O)NCCC(=O)NC3CCC(C)CC3)cc2CC1C (stereo unspecified) | inactive: 6.14% |
| Nc1c(C(=O)N2CCCCC2)sc(=S)n1-c1ccccc1 | inactive: 10.5% |
| COC(=O)c1ccc(N2NC(=O)/C(=C/c3ccc(-c4ccc(Cl)c(C(=O)O)c4)o3)C2=O)cc1 | inconclusive: 32.2% |
| COc1ccc(N2CCN(CC(O)COC(C)(C)C)CC2)cc1 (stereo unspecified) | inconclusive: 34.9% |
| CC(C)(CO)CNC(=O)CCc1nnc(-c2ccc(-c3ccccc3)cc2)o1 | inactive: 9.2% |
| O=C1NN(c2ccccc2)C(=O)/C1=C/c1ccc(-c2ccc(C(=O)O)cc2)o1 | inconclusive: 34.8% |
| COc1cc(C=NNc2ccc(S(=O)(=O)Nc3ccccc3C(=O)O)cc2[N+](=O)[O-])ccc1O | inconclusive: 32.1% |
| CC(=O)Nc1ccc(OC(=O)c2cc([N+](=O)[O-])ccc2Cl)cc1 | inconclusive: 33.6% |
| O=C(N/N=C/c1ccc(C(F)(F)F)cc1)c1ccncc1 | inactive: 5.6% |
| Cc1nc2ccc(NC(=O)c3cc([N+](=O)[O-])cc([N+](=O)[O-])c3Cl)cc2s1 | inconclusive: 39% |
| COC(=O)c1ccc(NCc2cc(O)ccc2O)cc1 | inconclusive: 32.8% |
| O=C(c1ccccc1)c1ccc(N2CCOCC2)c(F)c1 | inactive: 9.91% |
| COC(=O)c1[nH]c2cc(OC)ccc2c1N | inconclusive: 83.3% |
| COc1ccc(C[C@@H]2OC3(C=CC(=O)C=C3)O[C@H]2Cc2ccc(OC)cc2)cc1 | inconclusive: 33.5% |
| COc1cccc(CN2CCN(C(=O)c3ccco3)CC2)c1 | inconclusive: 32.5% |
| COc1cc(CNCc2ccc(OC)cc2OC)cc(OC)c1 | inconclusive: 34.8% |
| COc1ccc(NC(=S)Nn2cnnc2)cc1OC | inconclusive: 34.5% |
| Cc1nn(CC(=O)Nc2ccc(N(C)C)cc2)c(C)c1[N+](=O)[O-] | inconclusive: 40.9% |
| COc1ccc(CCNC(=O)c2cccc(S(=O)(=O)N3CCCCC3)c2)cc1 | inactive: 8.12% |
| Cc1ccc(S(=O)(=O)NC(=O)Nc2ccc(N(C)C)cc2)cc1 | inconclusive: 38.2% |
| COc1ccc(OC)c(CN2CCN(C(=O)c3cccs3)CC2)c1 | inconclusive: 33.2% |

| Structure (SMILES) | inhibition |
| --- | --- |
| O=C(NC1CCCCCCC1)c1ccc2c(c1)OCO2 | inactive: 4.04% |
| Cc1nn(CCCC(=O)Nc2cnn(Cc3ccc(F)cc3)c2)c(C)c1[N+](=O)[O-] | inactive: -3.65% |
| CC(=O)Nc1ccc(S(=O)(=O)N2CCC(N3CCCC3)CC2)cc1 | inactive: 18.2% |
| CCCC[n+]1c2ccccc2cc2ccccc21 | inconclusive: 99.2% |
| Cc1ccc(Oc2c(C(N)=O)cc([N+](=O)[O-])cc2[N+](=O)[O-])cc1 | inconclusive: 35.7% |
| CCOCCCNC(=O)C(=O)NCCCOCC | inactive: 6.87% |
| Clc1nc(Nc2ccc(N3CCOCC3)cc2)c2ccccc2n1 | inconclusive: 45% |
| Nc1cc(-c2ccccc2)ccc1O | inconclusive: 84.5% |
| Cc1ccc(NCCc2ccc(C)nc2)cc1 | inactive: 24.8% |
| Cc1ccc([N+](=O)[O-])c(OCCN2CCc3ccccc3C2)c1 | inconclusive: 34.6% |
| Oc1ccc(Nc2nc(-c3ccccc3)nc3ccccc23)cc1 | inconclusive: 33.6% |
| Cn1c(-c2ccc(F)cc2)cnc1NCc1ccc(F)cc1 | inactive: 16.6% |
| O=C(Nc1cccc(S(=O)(=O)N2CCOCC2)c1)c1c2c(nc3ccccc13)CCC2 | inactive: 11.9% |
| COc1ccc(N2CCN(C(CNC(C)=O)c3ccc4c(c3)OCO4)CC2)cc1 (stereo unspecified) | inactive: 11.6% |
| O=C(COc1cccc(C(F)(F)F)c1)N1CCN(c2ccc(O)cc2)CC1 | inconclusive: 67.1% |
| CCN1/C(=C\c2ccc3cc(C)ccc3[n+]2CC)Sc2cc(C)c(C)cc21 | inactive: 5.51% |
| CCC1CCCCN1C(=O)CNCC1CCCO1 (stereo unspecified) | inconclusive: 35.1% |
| COc1ccc(Cc2nnc(N/N=C/c3ccc(O)cc3O)[nH]c2=O)cc1OC | inconclusive: 65.5% |
| Cn1c(-c2ccc(F)cc2)cnc1NCc1ccccc1F | inactive: 25.9% |
| O=C(CCSc1ccc(Cl)cc1)N1CCN(c2ccc(O)cc2)CC1 | inconclusive: 75.7% |
| Cc1[nH]n(-c2ccccc2)c(=O)c1-c1ccc(Cl)cc1 | inactive: 8.45% |
| CCC(CNC(=O)c1c(C)nn(-c2ccccc2)c1Cl)c1ccccc1 (stereo unspecified) | inactive: -0.7% |
